The full ranking holds about 2,700 sequences; the median of “arbitrary fluorescence units” is about 4,100, and the highest 2% start at about 54,000. The list shows a part of the results.

This test addresses T1, ETS1 (UniProt P14921).
T1 sequence: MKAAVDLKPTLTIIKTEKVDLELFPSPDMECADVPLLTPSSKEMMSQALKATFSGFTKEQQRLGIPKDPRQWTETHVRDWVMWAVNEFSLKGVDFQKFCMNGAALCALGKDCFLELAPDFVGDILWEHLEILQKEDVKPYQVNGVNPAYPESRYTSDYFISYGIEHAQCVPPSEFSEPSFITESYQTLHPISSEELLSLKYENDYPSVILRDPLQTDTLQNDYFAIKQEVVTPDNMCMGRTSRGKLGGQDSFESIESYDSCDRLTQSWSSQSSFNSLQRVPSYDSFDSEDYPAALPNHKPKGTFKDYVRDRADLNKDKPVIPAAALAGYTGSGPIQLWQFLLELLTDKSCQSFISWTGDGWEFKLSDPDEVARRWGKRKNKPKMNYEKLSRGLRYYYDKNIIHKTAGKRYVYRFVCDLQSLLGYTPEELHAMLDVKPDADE
In words: ETS1 binding intensity (PBM fluorescence) (arbitrary fluorescence units); higher = stronger binding. The settings on record: ETS1 concentration 10 nM. As to the method:
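gcPBM on wild-type 36-bp genomic probes with two neighbouring ETS1 sites (4-24 bp apart). Recombinant human ETS1 (10 nM) was detected with anti-ETS1 antibody fluorescence. Values are medians over 3 replicate spots. The probes sit in constant array flanks that are not printed.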
In turn, GCTGTGCGCTCCCGGAAGCATTCCGGGCGGAGGGAA came in with an ETS1 binding intensity of 1860. For the sequence GCAGGAGACGGAAGATGCATGGGTTTCCTGGCGCGC, the ETS1 binding intensity was 424. Then TGACGCGCCCACCGGAAACGGAAGTAGTCGACTCGA, with 21500; and TTTGCAGGAAGTTAAGCTTCACGATGGGAAATGCCT, with 2510; and TGGCACTTGACATCCTGTTGACATCCGTCTCCCCTC, with 19700. Then GCCCCAGGAAGGGCCCACAGGCTGCAGGAAGAGCAC, with 202; and TCTAGAAGGAAATGGGTTAGCTTATTTCCTACCTCT, with 465; and GACGCGAAACTTTCCGGGCGCTTCCTCCCGCGGTCC, with 1330. GCACAGGAAGCCGGGCCAGCGGCCTCCGGAAGCCTC gave an ETS1 binding intensity of 3490. With GCCGCTTCCTGTCATTAAGCATCTCAGAGGAAGCAG, the ETS1 binding intensity amounted to 51200.

In turn, CACCGGAACGATTCTAGCTGCTCTTGCCGGAAGTGT showed an ETS1 binding intensity of 897.

For the sequence AGAGGCATGGGGGATGTGCTCTATCCTGTTTTGTCA, the ETS1 binding intensity came to 340.

In turn, CCACTTCCCCGGGTGCCCAGGAGTGAACATCCGGGT returned an ETS1 binding intensity of 6160. Then GGCCGGAAGCTACTCAGGCAGCCTCTGTTTCCTCAC, with 4530. Turning to CCTGCCACTTCCTGTGGGGTGCATATCCTGTTTCAG, the ETS1 binding intensity was 33800.

TATACATGGTTCCGGCTTGACGCGGATACCTAGTGA had an ETS1 binding intensity of 1870. Then TTACCTTCCTGCTCCCTGAGAGCAACAGGAAACACT, with 7920; and CACAGAGAAGGAAACGAGGAGGAGGATGTCTCACCG, with 233. As to TAGGCAGCCCCACATCCTGCTTCCTCCCTGTGCTGA, the ETS1 binding intensity was 10300.

With ACAGGAGCTACTTCCTGAACAGGATGAAGTATTTTG, the ETS1 binding intensity came to 9010. TGGCAGTTAGAACAGGAAGGAAGTCAATGAGAAAAA came in with an ETS1 binding intensity of 1070. For the sequence CAACGGCAGCTTCCTGCGGCGCCGGAAACGCTTCAA, the ETS1 binding intensity is 12100. As for AGATATTGTGTACTTCCCCTTCCTGTTGTGGTTGGC, the figure is 4130; as for GCTTTTCATACTTCCTGCTTGAGGAAGCTGCTACTG, 27000; as for TTACACTACTTCCGCCGCCTCACTTCCGGTGACGCG, 34100. Then AAAAACCACTTCCGCGTTCGTCACTTCCGCTGCCGG, with 23700; and AATGGCAACTTCCTGATTCAGTGCTTCCTGATTGTG, with 16000. As for CCGGGAGCTCCGGATGCAGACAGGAAGTGGGCAGGG, the figure is 9950.

Regarding CAAATCAGGAAGAGGACCCTCAACAGGAACTGAATC, the ETS1 binding intensity is 234.

Sequence CTCACATCCGTTTGTGGCTGCCGAGTGCTTCCTGGG yielded an ETS1 binding intensity of 17100.

CTGGGCGGGGCGGAAAAAATACTTCCCGTCTCTCCT gave an ETS1 binding intensity of 1470. As for CTGAGGGAAGTTTGCCTGAGACCTGGCTTCCTGCTC, the figure is 365; as for GAAGCGGAAATCAATCAGGCTGTCACCCTTCCTGTA, 3710; as for GGGCGCACTTCCGCGGCCGCTCTAGGAAGGGAGCGA, 7340. As for TTTCTGTCCGTTTCCGACAAACTTCCCGCGCTCTTC, the figure is 2630.

These data come from the supplement of paper PMC10681739.
